We go through two substances from article PMC11250848.

Protein sequences, listed by entry. Tags and fused reporters are not part of them.
UniProt O95166: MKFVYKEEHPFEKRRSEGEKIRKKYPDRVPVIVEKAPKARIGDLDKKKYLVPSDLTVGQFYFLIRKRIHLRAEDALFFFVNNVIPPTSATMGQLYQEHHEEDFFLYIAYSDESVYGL
UniProt Q9BSR8: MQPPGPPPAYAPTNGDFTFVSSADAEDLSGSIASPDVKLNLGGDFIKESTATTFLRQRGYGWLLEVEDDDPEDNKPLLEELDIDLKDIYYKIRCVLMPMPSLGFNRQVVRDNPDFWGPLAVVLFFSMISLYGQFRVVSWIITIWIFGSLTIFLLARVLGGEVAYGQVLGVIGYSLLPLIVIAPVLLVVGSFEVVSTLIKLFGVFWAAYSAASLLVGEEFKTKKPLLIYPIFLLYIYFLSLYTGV

The target of one experiment is FLAG-tagged GABARAP (UniProt O95166). Put plainly: co-IP; FLAG–ATG8s transfected into HEK293T cells; lysis in 50 mM Tris-HCl pH 7.4, 150 mM NaCl, 1 mM EDTA, 1% Triton X-100; anti-FLAG M2 agarose for 2 h or overnight at 4 °C; endogenous YIPF3 and YIPF4 detected by immunoblot. In general terms: Immunoblotting shows a protein as a band on a membrane.
The next experiment concerns the target FLAG–YIPF3 (human) (UniProt Q9GZM5). Put plainly: co-IP; FLAG–YIPF3 (WT or mutants) or FLAG–YIPF4 transfected into HEK293T cells; lysis in 50 mM Tris-HCl pH 7.4, 150 mM NaCl, 1 mM EDTA, 1% Triton X-100; anti-FLAG M2 agarose for 2 h or overnight at 4 °C; endogenous partners detected by immunoblot.
Experiment [1] has as its target T1, FLAG–YIPF3LIR2 A_3 (Y121Z, V124 A) (human) (UniProt Q9GZM5).
T1 sequence: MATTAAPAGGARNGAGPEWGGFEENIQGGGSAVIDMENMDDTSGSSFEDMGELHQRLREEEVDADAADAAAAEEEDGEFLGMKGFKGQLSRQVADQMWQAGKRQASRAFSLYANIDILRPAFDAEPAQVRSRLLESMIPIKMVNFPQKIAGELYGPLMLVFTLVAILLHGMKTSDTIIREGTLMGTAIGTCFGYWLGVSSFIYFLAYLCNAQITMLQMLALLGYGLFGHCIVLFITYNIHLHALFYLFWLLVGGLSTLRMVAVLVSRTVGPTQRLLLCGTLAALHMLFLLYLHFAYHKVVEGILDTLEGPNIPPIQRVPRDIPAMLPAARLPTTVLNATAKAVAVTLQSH
The description is as above.

In experiment [2] the target is T2, FLAG–YIPF3LIR2A_1 (F47A, M50A) (human) (UniProt Q9GZM5).
T2 sequence: T1 sequence with F47A, M50A, A121Y, A124V
The description is as above.

The target in experiment [3] is T3, FLAG–YIPF3LIR2A_2 (Y112A, I115A) (human) (UniProt Q9GZM5).
T3 sequence: T1 sequence with Y112A, I115A, A121Y, A124V
The experiment is described as above.

Residue numbers refer to the chain shown, from its start. No constants are given. Whether binding was seen depends on the method and setting. In cells and extracts the contact can be indirect. Some entries that bind do so weakly or less than the wild type. For part of these data: Tags and fused reporters may be left off the sequences shown.

On to “endogenous YIPF3 (from UniProt Q9GZM5 1-350)”, for which the binding result in the experiment with FLAG-tagged GABARAP is “binds”.
In the case of “endogenous YIPF4 (from UniProt Q9BSR8 1-244)”, the binding entry in the experiment with FLAG-tagged GABARAP was “no binding”; with FLAG–YIPF3 (human), “binds”; in experiment [1], “binds”; in experiment [2], “binds”; in experiment [3], “binds”.
